# Where “and” joins values, the source holds several entries; their conditions need not be identical. Identical values can stand only once. The campaign covered roughly 390,000 compounds. About 150 (0.038%) were called active. Roughly 3% stayed inconclusive and do not appear here. Calls come from the whole dose curve; as a rule, active = well fitted inhibition curve with a large enough effect; inconclusive = small, poorly fitted or top-dose-only effect; inactive = no such curve, though single readings can be large or run the other way. This is a selection; strong and weak results do not stand in their true shares. More than one record can exist for a structure, and the calls need not agree.
# Molecular target: Regulator of G-protein signaling 4 (Homo sapiens) (UniProt P49798)
# UniProt P49798, sequence (P49798 whole entry, looked up): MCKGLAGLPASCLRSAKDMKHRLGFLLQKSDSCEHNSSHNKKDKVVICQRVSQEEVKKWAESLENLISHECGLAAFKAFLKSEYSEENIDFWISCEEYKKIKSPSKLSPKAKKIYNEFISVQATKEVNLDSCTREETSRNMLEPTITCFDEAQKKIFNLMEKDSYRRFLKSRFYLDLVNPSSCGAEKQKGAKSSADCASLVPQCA
# Experiment: Inhibitors of Regulator of G Protein Signaling (RGS) 4: qHTS; note: nearly all actives have a fitted effect of over 75% in size
# Conditions: Transcreener GDP fluorescence polarization, RGS4-accelerated GTP hydrolysis; series mostly up to 114 µM; activity change, negative = inhibition: at the top concentration
# From the text: G-protein-coupled receptors (GPCRs) are well-established targets for drug discovery and development. Members of the "regulator of G-protein signaling" (RGS)-protein superfamily have recently emerged as critical modulators of specific GPCR signaling pathways. […] Combining specific RGS domain inhibitors with existing GPCR agonists should potentiate cellular responses and could also increase the specificity of action of existing therapeutics. Small molecule modulators of RGS domain activity should also have clinical utility in inhibiting or potentiating the actions of endogenous GPCR agonists. In particular, the diversity of RGS proteins with highly localized and dynamically regulated distributions in the human brain makes this family of proteins attractive targets for pharmacotherapy of central nervous system (CNS) disorders such as Parkinson's disease, schizophrenia, and anxiety.
# This assay was used to screen the NIH Molecular Libraries Small Molecule Repository (MLSMR) in order to identify a small molecule that inhibits RGS4.
# NIH Chemical Genomics Center [NCGC]
# NIH Molecular Libraries Probe Centers Network [MLPCN]
# Assay Submitter (PI): David Siderovski, University of North Carolina Chapel Hill (School of Medicine)
# Two microliters of 500nM (2x working concentration) is dispensed into black medium-binding solid-bottom Kalypsys plates. Then with the Kalypsys pintool 23nl of control and compounds are transferred; the control compound is […] CCG-4986 (working concentration). After a 10 minute incubation at room temperature 2ul of antibody is added with the Kalypsys dispenser; (-)RGS4/Transcreener GDP solution in columns 3 and 4 which consisted of 10nM (2x working concentration) Alexa633, 20uM GTP, and 20 ug/ml GDP antibody and (+)RGS4/Transcreener GDP solution in columns 1,2, and 5 to 48 which consists of 900nM RGS4 (2x working concentration), 10nM Alexa633, 20 ug/ml GDP antibody. The plate is centrifuged at 1000 RPM for 15 seconds to remove any possible bubbles and then incubated for 5 minutes at ambient room temperature. An initial fluorescent polarization read (620 nm/688 nm) is performed on the Envision before the plate is incubated for 90 minutes at 30 deg C at a relative humidity of 80%. The plate is once more centrifuged at 1000 RPM for 15 seconds and another Envision fluorescent polarization (620 nm/688 nm) read is carried out.
# % is set by controls: 0 for no effect and ±100 for the full control effect; potency is the fitted concentration of half-maximal effect.
SMILES,"activity change, negative = inhibition",Potency
CCN(CCn1cccn1)C(=O)c1cc(COc2cccc3cccnc23)on1,inactive: 54.7%,
C[N+](C)(C)CCCCCC[N+](C)(C)C,,inactive
O=C(c1cccc(F)c1)N1CCCC(C(=O)N2CCCC2)C1 (centres undefined),inactive: 56.2%,
CN(c1ccccc1)S(=O)(=O)c1ccc(NC(=O)c2nc(S(C)(=O)=O)ncc2Cl)cc1,inactive: -103%,
Cn1c(=O)cc(OCCCC(=O)NCc2ccccn2)c2ccccc21,inactive: 66.1%,
C=Cc1c(C)c2cc3[nH]c(cc4nc(cc5nc(cc1[nH]2)C(C)=C5CCC(=O)O)C(CCC(=O)O)=C4C)c(C)c3C=C,,active: 9.47 µM
CCCN1C[C@H](CSC)C[C@@H]2c3cccc4[nH]cc(c34)C[C@H]21,,inactive
O=C(Nc1cccc(Cl)c1)c1cnc[nH]1,inactive: -12.8%,
CSc1ccc2c(c1)C(N1CCN(C)CC1)Cc1ccccc1S2 (centres undefined),,inactive
CN(C)CCCN1c2ccccc2Sc2ccccc21,inactive: -1.91%,
O=C1C2C(C(=O)N1CCN1CCN(Cc3ccc([N+](=O)[O-])cc3)CC1)[C@H]1C=C[C@@H]2C1 (some centres undefined),inactive: 19.6%,
CC1=C(CC(=O)O)c2cc(F)ccc2/C1=C\c1ccc(S(C)=O)cc1 (centres undefined),inactive: -29.8%,
COc1ccc(NC(=O)Cn2nnc(C(=O)Nc3ccc(F)c(Cl)c3)c2N)cc1OC,,inactive
S=C(S)OC1CC2CC1C1CCCC21 (centres undefined),,inactive
COc1cccc2c1C(=O)c1c(O)c3c(c(O)c1C2=O)C[C@@](O)(C(=O)CO)C[C@@H]3O[C@H]1C[C@H](N)[C@H](O)[C@H](C)O1,inactive: 5.48%,
COc1ccccc1C(=O)N/C(=C\c1ccc(Br)cc1)C(=O)N1CCCC1,inactive: 0.629%,
O=C(O)c1cccc2c1-c1ccc(Cl)cc1C2,inactive: 107%,
CC(C)NC(=O)Nc1cccc2c1O[C@@H](CN(C)S(=O)(=O)c1ccc(F)cc1)[C@@H](C)CN([C@H](C)CO)C2=O,inactive: 7.01%,
COc1ccccc1N1CCN(CCN(C(=O)C2CCCCC2)c2ccccn2)CC1,,inactive
O=C(N/N=C/C=C/c1ccco1)c1cccs1,inactive: -53.8%,
Nc1ncnc2c1ncn2[C@@H]1O[C@H](CO)[C@@H](O)[C@H]1O,,inactive
O=C1OC[C@@H]2CCCN2C(=O)[C@@H](CC(=O)N(CCO)Cc2ccccc2)C/C=C\C[C@H]1Cc1ccc(F)cc1,inactive: 17.7%,

SMILES,"activity change, negative = inhibition",Potency
OCC[C@@H]1C[C@H](O)[C@@H](O)[C@]2(OCCc3ccccc32)O1,inactive: 12.4%,
COC(=O)C1=C(C)NC2=C(C(=O)CC(c3cccs3)C2)C1c1ccsc1 (centres undefined),inactive: 67.1%,
O=S(=O)(/N=C(\Sc1ccc(Cl)cc1)c1ccccc1)c1ccccc1,inactive: -41.2%,
CN(C)CCOC(c1ccccc1)c1ccccc1,,inactive
O=C(Nc1ccnn1C1CCN(Cc2ccccc2OC(F)F)CC1)c1cccnc1,inactive: 70%,
CC(C)NC[C@@H](O)c1ccc(O)c(O)c1,inactive: -34.3%,
CC1CC2C3CCC4=CC(=O)C=CC4(C)C3(F)C(O)CC2(C)C1(O)C(=O)CO (centres undefined),inactive: 7.25%,
COCC1CCN(C(=O)C2CCN(c3nc(-c4ccccc4)nc4c3CCC4)CC2)C1 (centres undefined),inactive: 56%,
CC1CC2C3CCC4=CC(=O)C=C[C@]4(C)[C@@]3(F)[C@@H](O)C[C@]2(C)[C@@]1(O)C(=O)CO (some centres undefined),inactive: 13.2% [at 56.9 µM],
CC(C1=C(CCN(C)C)Cc2ccccc21)c1ccccn1 (centres undefined),inactive: -9.13%,
O=c1[nH]c(=S)[nH]c(-c2ccccc2)c1Cc1c(O)ccc2ccccc12,,active: 2.12 µM
CCc1c(C)[nH]c2c1C(=O)C(CN1CCOCC1)CC2 (centres undefined),inactive: 5.3%,
COc1ccc(-c2cc(NCCc3ccncc3)n3ncnc3n2)cc1,inactive: 54.3%,
CN1CCc2cc(Cl)c(O)cc2[C@@H](c2ccccc2)C1,,inactive
Nc1ccc(N2C(=O)c3ccccc3C2=O)c(Cl)c1,,inactive
O=C(NCc1ccco1)[C@@H]1CCCN1C(=O)c1cccs1,inactive: 55.5%,
CC1=C(/C=C/C(C)=C/C=C/C(C)=C/C(=O)O)C(C)(C)CCC1,inactive: -13.7%,
CCCC1=NN(c2ccc([N+](=O)[O-])cc2)C(=O)/C1=C/N(C)C,inactive: 26.6%,
N[C@@H](Cc1c[nH]c2ccc(O)cc12)C(=O)O,,active: 23.8 µM
CCN1CCN(Cc2ccc(NC(=O)c3ccc(C)c(NC(=O)C(=O)c4c[nH]c5ccccc45)c3)cc2C(F)(F)F)CC1,inactive: -12%,
COc1ccc(-c2ccoc2)cc1C1C2C=CCC(C)C2C(=O)N1Cc1ccccc1 (centres undefined),inactive: -50.2%,
CC1CCN(C(=O)CCS(=O)(=O)c2cc3c(cc2Cl)NC(=O)CO3)CC1,inactive: 16.4%,

SMILES,"activity change, negative = inhibition",Potency
Oc1ccc2ccccc2c1SSc1c(O)ccc2ccccc12,,active: 1.68 µM
C[C@@](N)(C(=O)O)c1ccc(C(=O)O)cc1,inactive: -31.7% [at 56.9 µM],
CN(C)CC(O)Cn1c2ccc(Br)cc2c2cc(Br)ccc21 (centres undefined),,active: 0.67 µM
CCCCCCCCCCCCCCCC(O)C(N)CO (centres undefined),inactive: -18.2%,
Cc1ccccc1NC(=S)NCCc1ccccn1,inactive: 65.1%,
N[C@@H]1CONC1=O,inactive: 14.2% [at 56.9 µM],
Cc1ccc(S(=O)(=O)N[C@@H](Cc2ccccc2)C(=O)CCl)cc1,,active: 7.52 µM
CCOC(=O)N1CCN(/[N+]([O-])=N/Oc2ccc([N+](=O)[O-])cc2[N+](=O)[O-])CC1,inactive: -36.7%,
O=C1O/C(=C/C(=O)N2CCOCC2)c2ccccc21,inactive: -4.78%,
Cc1c(C(=O)NN2CCCCC2)nn(-c2ccc(Cl)cc2Cl)c1-c1ccc(I)cc1,,inactive and active: 29.9 µM
CC(=O)[C@@]1(O)CC[C@H]2[C@@H]3C[C@H](C)C4=CC(=O)C=C[C@]4(C)[C@@]3(F)[C@@H](O)C[C@@]21C,inactive: 18%,
CCCn1c(=O)[nH]c(=O)c2[nH]cnc21,,inactive
Cn1c(=O)[nH]c2ncn(C)c2c1=O,,inactive
C1COC(NC(C2CC2)C2CC2)=N1,inactive: -1.66%,
CC(=O)[C@H](CC(C)C)NC(=O)[C@@H](CC(C)C)NC(=O)[C@H](CC(C)C)NC(=O)OCc1ccccc1,,active: 8.44 µM
CCOCCCNC(=O)C(c1ccc(C)cc1)N(Cc1ccc2c(c1)OCO2)C(=O)CNC(C)=O (centres undefined),inactive: 56%,
OCC[C@H]1C[C@H](O)[C@@H](O)[C@@]2(CCc3ccccc3CO2)O1,inactive: 0.168%,
CCCc1nnc(NC(=O)CCC(=O)NCc2ccccc2Cl)s1,inactive: 58.8%,
CCOC(=O)/C(=C\c1ccc(OC(F)F)cc1)C1=Nn2c(nnc2-c2ccc(Cl)cc2)SC1,inactive: -25.3%,
CC(C)(C)c1ccc(S(=O)(=O)/C=C\C#N)cc1,inactive: -163% [at 56.9 µM],

# Source: PubChem BioAssay AID504845 (National Center for Advancing Translational Sciences (NCATS), 2011)
